PubChem BioAssay AID938 (National Center for Advancing Translational Sciences (NCATS), 2007)
The campaign covered roughly 73,000 compounds. About 1,800 (2.5%) were called active. The inconclusive results got no clear call from the source; some entries with a clear call stand among them for comparison. Calls follow the shape of the dose curve; as a rule, active = well fitted activation curve with a large enough effect; inconclusive = small, poorly fitted or top-dose-only effect; inactive = no such curve, though single readings can be large or run the other way. Potencies of inconclusive entries are left out as doubtful fits.
Potency is read from the fitted curve at half-maximal effect; tags tell the direction and shape of the fitted curve.

Assay: qHTS Assay for Agonists of the Thyroid Stimulating Hormone Receptor: Activators of Intracellular cAMP Concentrations in Parental HEK 293; also: nearly all actives have a fitted effect of over 55% in size; as to activation: % of control where 0% means no effect
Conditions: parental HEK293 CNG cAMP sensor, membrane potential fluorescence; activation: at 57.1 µM (top of the series) unless noted
Summary of the method: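 Counterscreen for endogenous-receptor signalling: CNG-channel HEK 293 cells report cAMP rise by membrane depolarization. After 60 min dye equilibration with 100 uM RO 20-1724, compounds incubated 30 min before bottom-read fluorescence at 590 nm.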
In the case of `CCC(=O)N1CCc2cc(S(=O)(=O)NCCC(=O)N3CC=C(c4ccccc4)CC3)ccc21`, the Potency is reported as inconclusive [activator, single point].
In the case of `CCOC(=O)c1ccc(CNC(=O)CSc2nnnn2-c2ccc(Cl)cc2)o1`, the Potency is reported as inconclusive [activator, single point].
In the case of `CC1CCN(C(=O)Cn2c(=O)n(CCc3ccccc3)c(=O)c3ccccc32)CC1`, the Potency is reported as inconclusive [activator, partial curve].
In the case of `CC1(C)[C@@H](O)CC[C@@]2(C)[C@H]1CC[C@]1(C)[C@H]2C(=O)C=C2[C@@H]3C[C@@](C)(C(=O)O)CC[C@]3(C)CC[C@@]21C`, the Potency is reported as inconclusive [activator, single point].
For `COC(=O)c1ccc(C(NC(=O)OCc2ccccc2)/C(C)=C/[C@@H](C)C(=O)N(C)Cc2cccnc2)cc1` (some centres not stated), the Potency was inconclusive [activator, single point].
In the case of `COc1cccc(-c2cc(NCc3ccccc3OC)ncn2)c1`, the Potency is reported as inconclusive [activator, partial curve, poor fit].
In the case of `c1ccc(N2CCN(c3ncnc4scc(-c5cccs5)c34)CC2)cc1`, the Potency is reported as inconclusive [activator, single point].
With `C=CCn1cc(C(=O)NCC2CCCO2)c(=O)c2cc(S(=O)(=O)N3CCCCCC3)ccc21` (configuration not stated) the Potency was inconclusive [activator, single point].
In the case of `O=C(O)CSc1nnc(-c2ccco2)o1`, the “activation” value is reported as inactive: 7.59%.
With `Nc1cc(N)nc(SCC(=O)Nc2ccc(Br)cc2Cl)n1` the “activation” value was inactive: -17.9%.
With `c1ccc(CCNc2ncnc3c2cnn3-c2ccccc2)cc1` the Potency was inconclusive [activator, partial curve].
For `O=C(O)c1cc(=O)c2c(Cl)cc(Cl)cc2[nH]1`, the Potency was inconclusive [activator, single point].
With `CCn1cc(C(=O)NCc2ccco2)c(=O)c2cc(S(=O)(=O)N3CC(C)CC(C)C3)ccc21` (configuration not stated) the Potency was inconclusive [activator, single point].
In the case of `CCC(=O)N[C@@H]1Cc2ccccc2[C@@H](c2ccccc2)C1`, the Potency is reported as active: 20 µM.
In the case of `C=CCn1c(C)cc(C(=O)CSc2nnc(Cc3ccccc3)o2)c1C`, the Potency is reported as inconclusive [activator, single point].
In the case of `O=C(Nc1nnc(-c2ccccc2Cl)o1)c1ccc(S(=O)(=O)N2CCCCCC2)cc1`, the Potency is reported as inconclusive [activator, single point].
In the case of `CCOC(=O)CSc1nc2ccccc2c(=O)n1CCCCCC(=O)NCc1ccco1`, the Potency is reported as inconclusive [activator, partial curve].
For `Cc1nn(-c2ccccc2)c2[nH]c(=O)c(CNc3ccc(N4CCOCC4)cc3)cc12`, the “activation” value was inactive: -25.1%.
For `CC(C)[C@@H](CC(=O)N[C@@H]1CCNC[C@H]1C(=O)N[C@H](CC(=O)N[C@@H](CCC(=O)O)CC(=O)O)Cc1ccccc1)NC(=O)C[C@H](CO)NC(=O)[C@@H]1CCCC[C@H]1N`, the Potency was inconclusive [activator, single point].
For `COC(=O)N1CCC2(CC1)CCN(c1ccccn1)CC2`, the Potency was inconclusive [activator, single point].
In the case of `COc1ccc(C[N+](C)(C)N)cc1OC`, the activation is reported as inactive: 8.61% [at 11.4 µM].
In the case of `COc1ccc2[nH]c3ccccc3c2c1`, the “activation” value is reported as inactive: 7.35%.
With `COc1ccc(-c2ccc(SCC(=O)NCc3ccco3)nn2)cc1` the Potency was inconclusive [activator, single point].
With `Cc1oc2c(c1C(=O)NCc1ccccc1)CCCC2` the Potency was inconclusive [activator, single point].
With `CCCCOC(=O)C1Cc2ccccc2C(=O)O1` (configuration not stated) the “activation” value was inactive: 0.982%.
For `N#Cc1cccc(-c2nc3cnc(Oc4cccc(Cl)c4)nc3n(C3CC3)c2=O)c1`, the “activation” value was inactive: -6.97%.
For `O=C(N/N=C/c1ccccc1O)c1cc(-c2ccccc2)n[nH]1`, the “activation” value was inactive: 27.4%.
For `O=S(=O)(c1ccccc1)N1CCC[C@@]2(CCN(c3ccncc3)C2)C1`, the Potency was inconclusive [activator, full curve, poor fit].
For `CC1=C(C(=O)OCC2CCCO2)C(c2ccncc2)C2=C(CC(C)(C)CC2=O)N1` (configuration not stated), the Potency was active: 3.98 µM.
For `CCC(=O)OCC(=O)[C@@]1(OC(=O)CC)[C@H](C)C[C@@H]2[C@@H]3[C@H]([C@@H](O)C[C@@]21C)[C@]1(C)C=CC(=O)C=C1C[C@@H]3Cl`, the “activation” value was inactive: -0.585% [at 25.6 µM].
In the case of `O=C(CSc1nc2cc(Cl)ccc2o1)c1cccs1`, the Potency is reported as inconclusive [activator, single point].
For `CN1CCN(c2ccccc2NC(=O)c2ccc(Br)o2)CC1`, the “activation” value was inactive: 12.8%.
With `CCOc1cc(-c2c(C)c(CC)nc(N)c2C#N)ccc1O` the Potency was inconclusive [activator, partial curve].
With `CNc1ncnc2ccc(-c3ccccc3C)cc12` the Potency was active: 2 µM.
With `COc1ncc2nc(C)c(=O)n(C)c2n1` the “activation” value was inactive: 16.7%.
For `O=C(O)Cc1cc(Cl)ccc1O`, the activation was inactive: 2.83% [at 11.4 µM].
In the case of `CCn1c(=O)c(C(=O)NCc2ccccn2)c(O)c2ccccc21`, the Potency is reported as inconclusive [activator, full curve].
In the case of `COc1ccccc1CCn1c(=O)c(C)nc2cncnc21`, the Potency is reported as inconclusive [activator, single point].
With `CCOc1ccc2[nH]c(=O)c(CN(Cc3ccccc3)C(=O)N3CCCC3)cc2c1` the Potency was inconclusive [activator, partial curve].
With `O=C(NCc1cccnc1)C1CCN(S(=O)(=O)c2cccnc2)CC1` the Potency was inconclusive [activator, full curve, poor fit].
For `O=C(O)CCCC[C@@H]1SC[C@H]2NC(=O)N[C@H]12`, the “activation” value was inactive: -3.1%.
In the case of `CCc1cc(=O)n2[nH]c(C)c(-c3ccccc3OC)c2n1`, the Potency is reported as inconclusive [activator, full curve].
In the case of `O=C(NCc1cccs1)c1cc2ccccc2o1`, the Potency is reported as inconclusive [activator, partial curve].
For `Cc1ccc(Cn2c(SCC(C)C)nc3c2c(=O)[nH]c(=O)n3C)cc1`, the Potency was inconclusive [activator, single point].
With `CC1CCN(S(=O)(=O)c2cn(CC(=O)N3CCN(C)CC3)c(=O)c3ccccc23)CC1` the Potency was inconclusive [activator, partial curve].
In the case of `CS(=O)(=O)N1CCc2cc(C(=O)OCC(=O)c3ccccc3)ccc21`, the “activation” value is reported as inactive: 14.7%.
For `C=CCn1c(SCC(=O)N2CCN(C(=O)c3ccco3)CC2)nc2sc(CC)cc2c1=O`, the “activation” value was inactive: 13.5%.
For `CCn1c(SCc2nc3ccccc3c(=O)[nH]2)nc2ccccc2c1=O`, the Potency was inconclusive [activator, partial curve].
With `COC(=O)N1CCC[C@@]2(CCN(C(c3ccccc3)c3ccccc3)C2)C1` the Potency was active: 7.94 µM.
For `CCc1cccc(CC)c1NC(=O)CN(CC(=O)O)CC(=O)O`, the Potency was inconclusive [activator, single point].
For `CCCn1c(=O)c2ccccc2n2c(SCc3nc4ccccc4s3)nnc12`, the Potency was inconclusive [activator, partial curve].
For `c1ccc(-c2cc(-c3nnc4sc(-c5ccccn5)nn34)[nH]n2)cc1`, the Potency was active: 25.1 µM.
For `O=C(O)CCC(=O)Nc1ccc(N2CCCCCC2)cc1`, the “activation” value was inactive: 0.904%.
In the case of `CCOC(=O)CSc1nc2ccccc2c(=O)n1CC1CCCO1` (configuration not stated), the Potency is reported as active: 15.8 µM.
In the case of `c1ccc(Cn2c(Sc3nnnn3-c3ccccc3)nnc2-c2ccccc2)cc1`, the Potency is reported as inconclusive [activator, single point].
In the case of `O=C1CC(c2ccccc2)Sc2ccccc2N1` (configuration not stated), the Potency is reported as inconclusive [activator, single point].
In the case of `O=S(=O)(c1ccc2c(c1)OCCO2)N1CCN(c2nc3ccccc3s2)CC1`, the “activation” value is reported as inactive: 17.2%.
In the case of `CC(=O)NCCNc1nc(-c2ccccc2C)nc2ccccc12`, the “activation” value is reported as inactive: 22.1%.
For `CC(=O)NC1CC2CCCC(C1)N2CC(=O)N1CCCc2ccccc21` (configuration not stated), the Potency was inconclusive [activator, single point].
For `COc1ccc(-c2nnc(CSc3nc4ccccc4c(=O)n3C)o2)cc1OC`, the Potency was active: 25.1 µM.
In the case of `CCC(=O)Nc1cc(OC)c(NC(=O)c2ccccc2)cc1OC`, the “activation” value is reported as inactive: -0.964%.
In the case of `O=C(O)c1ccc(-n2nnnc2Oc2ccccc2C(=O)N2CCOCC2)cc1`, the “activation” value is reported as inactive: 0.873%.
In the case of `COc1cc(C(=O)N2CCC(C(=O)Nc3cccc(C(C)=O)c3)CC2)cc(OC)c1OC`, the Potency is reported as inconclusive [activator, single point].
With `CC(C)Oc1ccc(C2/C(=C(/O)c3ccc(F)cc3)C(=O)C(=O)N2CCCN(C)C)cc1` (configuration not stated) the “activation” value was inactive: -5.99%.
With `O=C(NC1CCCC1)C(c1cccs1)N(Cc1ccco1)C(=O)c1csnn1` (configuration not stated) the Potency was inconclusive [activator, partial curve].
In the case of `CC1=C(C#N)C(c2ccoc2)C(C(=O)OCc2ccccc2)=C(N)S1` (configuration not stated), the Potency is reported as inconclusive [activator, single point].
For `COc1ccc2c(c1)c1ccccc1n2C`, the “activation” value was inactive: -2.66%.
With `C=CCOc1ccc(C2/C(=C(\O)c3c(C)[nH]c(C(=O)OC)c3C)C(=O)C(=O)N2CCN(C)C)cc1` (configuration not stated) the Potency was inconclusive [activator, single point].
For `CCOC(=O)c1cnn(-c2cccc(Cl)c2)c1N`, the “activation” value was inactive: 4.26%.
In the case of `Cc1ccccc1Oc1ccc(Oc2ccccc2C)nn1`, the Potency is reported as inconclusive [activator, partial curve].
With `Cc1cc(C)c(C#N)c(SCc2ccc(C#N)cc2)n1` the Potency was inconclusive [activator, single point].
For `O=C(c1cccc(F)c1)N1CCC2(CC1)CN(c1ccccc1)C2`, the “activation” value was inactive: -1.32%.
